Measured values as given in publication PMC4336329 (PLoS ONE, 2015).
The campaign covered roughly 310,000 compounds. About 2,200 (0.71%) showed an effect of 50% or more. The effect is printed as a negative number. The list shows a part of the results.

Target: human ether-à-go-go-related gene (hERG) potassium channel (human, UniProt Q12809)
Experiment: primary screen, population patch clamp on CHO cells stably expressing hERG

human ether-à-go-go-related gene (hERG) potassium channel, sequence (Q12809 whole entry, looked up): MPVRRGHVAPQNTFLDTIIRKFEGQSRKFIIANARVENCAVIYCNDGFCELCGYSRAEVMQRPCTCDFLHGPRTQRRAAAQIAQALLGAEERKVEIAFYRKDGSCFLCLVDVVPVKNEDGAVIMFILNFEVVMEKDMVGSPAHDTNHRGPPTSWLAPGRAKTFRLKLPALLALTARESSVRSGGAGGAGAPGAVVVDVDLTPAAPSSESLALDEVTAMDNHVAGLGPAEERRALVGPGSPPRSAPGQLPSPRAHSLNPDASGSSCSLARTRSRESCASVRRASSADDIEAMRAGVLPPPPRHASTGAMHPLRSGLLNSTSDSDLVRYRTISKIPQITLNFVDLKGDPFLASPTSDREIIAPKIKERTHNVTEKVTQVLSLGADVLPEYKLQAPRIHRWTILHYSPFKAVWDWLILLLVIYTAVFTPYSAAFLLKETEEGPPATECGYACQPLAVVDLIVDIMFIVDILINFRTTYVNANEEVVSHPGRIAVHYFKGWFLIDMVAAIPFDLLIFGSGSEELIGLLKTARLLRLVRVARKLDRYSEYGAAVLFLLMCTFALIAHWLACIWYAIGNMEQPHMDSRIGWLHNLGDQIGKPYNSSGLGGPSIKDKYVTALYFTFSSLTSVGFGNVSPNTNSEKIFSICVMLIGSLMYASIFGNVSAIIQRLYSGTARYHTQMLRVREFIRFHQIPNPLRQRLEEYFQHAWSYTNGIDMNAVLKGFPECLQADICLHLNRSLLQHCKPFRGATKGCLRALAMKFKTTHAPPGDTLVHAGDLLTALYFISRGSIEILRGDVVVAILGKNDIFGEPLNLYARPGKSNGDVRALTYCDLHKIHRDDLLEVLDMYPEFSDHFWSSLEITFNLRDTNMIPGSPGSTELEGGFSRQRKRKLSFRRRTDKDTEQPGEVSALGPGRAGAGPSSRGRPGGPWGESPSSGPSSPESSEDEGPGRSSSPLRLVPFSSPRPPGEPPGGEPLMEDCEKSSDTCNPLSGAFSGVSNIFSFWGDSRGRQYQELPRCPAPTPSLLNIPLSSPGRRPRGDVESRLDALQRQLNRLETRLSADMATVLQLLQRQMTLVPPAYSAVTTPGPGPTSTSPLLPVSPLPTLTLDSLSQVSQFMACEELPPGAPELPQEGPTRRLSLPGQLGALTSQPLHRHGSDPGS

| Compound | hERG current change (%, negative = inhibition) at 1uM [%] |
| --- | --- |
| COc1cc(C(C)=O)ccc1OCC(O)CNCC(O)c1ccccc1.O=C(O)C(=O)O (stereo not drawn) | 8.95 |
| CC1CCCCN1Cc1c(O)ccc2c(=O)c(-c3nc4ccccc4s3)coc12 (stereo not drawn) | 1.24 |
| NC(=O)c1nc(-c2ccccc2)c(-c2ccccc2)[nH]c1=O | 9.1 |
| O=C(c1ccccc1)c1cnc(-c2ccc(Cl)cc2)s1 | 12.1 |
| COc1cnc(-c2ccccn2)nc1Sc1ccccc1Cl | 5.73 |
| Cc1ccc(-n2ncc3c(NCc4ccc5c(c4)OCO5)ncnc32)c(C)c1 | 6.98 |
| O=C(CCN1C(=O)S/C(=C/c2ccccc2)C1=O)Nc1ccc(O)c(C(=O)O)c1 | 16.7 |
| O=C1CCCc2[nH]c(-c3ccccc3)nc21 | 7.63 |
| O=c1c(/C=N/O)coc2ccc3ccccc3c12 | -2.82 |
| CCOc1ccc(S(=O)(=O)Nc2cccc(C(=O)NCC(c3ccc(OC)cc3)N3CCOCC3)c2)cc1 (stereo not drawn) | 12.6 |
| Br.CN(/N=C/c1ccncc1)C1=NCCN1 | 13.1 |
| CCCOC(=O)C1=C(C)NC2=C(C(=O)CC(C)(C)C2)C1c1cccnc1 (stereo not drawn) | 12.6 |
| Cc1nn(C)c(C)c1NC(=O)CN1CCC(O)(c2ccc3c(c2)OCO3)CC1 | 6.06 |
| COC(c1ccccc1)c1nnc(CCC(=O)NC2CCCCC2)o1 (stereo not drawn) | 3.87 |
| O=C(c1ccc(Cn2c(=O)[nH]c3ccccc3c2=O)cc1)N1CCN(c2ccc(F)cc2)CC1 | 9.82 |
| Cc1nc(CS(=O)(=O)c2ccccn2)sc1C(=O)NNC(=O)c1c(F)cccc1Cl | 15.4 |
| COc1ccc(CCN(Cc2ccccn2)C(=S)Nc2ccccc2C)cc1OC | 6.09 |
| CC/C(=N\NC(=O)Nc1ccccc1)c1c(O)n(Cc2ccccc2)c(=O)[nH]c1=O | 9.36 |
| Cc1cc(C)n(-c2nc3ccccc3c(=O)n2OCCOc2ccccc2)n1 | 8.15 |
| CC1CCCC(NS(=O)(=O)c2cc(Br)cnc2N)C1C (stereo not drawn) | 10.6 |
| NC1=NC(c2cn(-c3ccccc3)nc2-c2cccs2)n2c(nc3ccccc32)N1 (stereo not drawn) | 4.06 |
| C[C@H](NC(=O)NC1CCCc2ccccc21)C(=O)O (stereo partly drawn) | 17.2 |

| Compound | hERG current change (%, negative = inhibition) at 1uM [%] |
| --- | --- |
| O/N=C/c1cn(-c2ccccc2)nc1-c1ccc2c(c1)OCCO2 | 6.86 |
| COc1ccc(CCNC(=O)[C@H](C)N2C(=O)N3CCc4c([nH]c5ccccc45)[C@@]3(C)C2=O)cc1 | 7.34 |
| CCOc1ccc(NS(=O)(=O)c2cc(Cl)ccc2OC)cc1 | 5.37 |
| CC1(C)NC(=O)N(CC(=O)N2CCN(c3ccc([N+](=O)[O-])cc3)CC2)C1=O | -29.1 |
| Cc1cccc(C)c1OCCCCN1CCNCC1.O=C(O)C(=O)O | 14.3 |
| C=CCOc1ccc(/C(O)=C2\C(=O)C(=O)N(CCCOC)C2c2ccc(O)c(OC)c2)cc1 (stereo not drawn) | 14.7 |
| C=CCn1c(Cc2ccc(OC)cc2)nnc1SCC(=O)NCCc1ccccc1 | -11.7 |
| N/C(=N\NC(=O)c1ccc(F)cc1)c1cc2ccccc2oc1=O | 2.42 |
| O=[N+]([O-])c1ccc(N(CCO)Cc2ccccc2)c([N+](=O)[O-])c1 | 15.4 |
| O=C(CSc1nnc(-c2ccccn2)n1Cc1ccco1)c1ccccc1 | -20.7 |
| CS(=O)(=O)c1nsc2nc(=O)c(/C=C3\C=Nc4ccccc43)c(N)n12 | 9.52 |
| CCn1c(CNC(=O)c2ccccc2F)cc2cc(C)ccc21 | 14.8 |
| CN(C)C(=O)c1ccc2c(c1)n(C)c(=O)n2C | 6.44 |
| CCOC(=O)C1C2C=CC3(CN(Cc4ccco4)C(=O)C13)O2 (stereo not drawn) | 19.4 |
| O=S(=O)(NCc1cccnc1)c1cc(Cl)ccc1Cl | 14.4 |
| N#Cc1ccc(S(=O)(=O)N2CCC(C(=O)Nc3cccc(C(=O)NC4CC4)c3)CC2)cc1 | 5.83 |
| O=[N+]([O-])c1ccccc1OCC(O)CN1CCN(CC(O)COc2ccccc2[N+](=O)[O-])CC1 (stereo not drawn) | -15.3 |
| Cc1onc(-c2ccccc2Cl)c1C(=O)NCc1cccs1 | 3.24 |
| COC(=O)c1ccsc1NC(=O)CS(=O)(=O)c1ccccc1 | 4.02 |
| Cc1c(NC(=O)c2c(NC(=O)CNC3CC3)sc3c2CCCC3)c(=O)n(-c2ccccc2)n1C.O=C(O)C(=O)O | 15.1 |
| Cc1nnc(C)n1/N=C/c1c(O)ccc2ccccc12 | 7.17 |
| COc1ccc(CCC(=O)N2c3ccccc3CC2C)cc1 (stereo not drawn) | 9.07 |

| Compound | hERG current change (%, negative = inhibition) at 1uM [%] |
| --- | --- |
| COc1cccc(CNC(=O)CCC2CCCN(C(=O)c3cc(C)[nH]n3)C2)c1 (stereo not drawn) | 8.79 |
| Cc1cccc([C@@H]2[C@@H]3C(=O)N(C)C(=O)[C@@H]3[C@@H]3C(=O)Nc4ccccc4C(=O)N23)c1 | 14.6 |
| CN(Cc1cccs1)CC(O)COCc1ccco1 (stereo not drawn) | 5.31 |
| O=C(NCCCN1CCOCC1)C1CC(=O)N(c2ccccc2)C1 (stereo not drawn) | 11.6 |
| Cc1ccccc1S(=O)(=O)Cc1ccc(C(=O)NCCN(C)Cc2ccccc2)o1 | -5.08 |
| CCN(CC)CCN(C(=O)CN1C(=O)CCC1=O)c1nc2cc3c(cc2s1)OCO3.Cl | 3.68 |
| O=C(NCCN1CCCCC1)c1ccco1 | 9.42 |
| COC(=O)c1[nH]c2cccc(OC)c2c1NC(=O)CN1CCN(c2cccc(OC)c2)C(C)C1 (stereo not drawn) | 20 |
| Cc1ccc(NS(=O)(=O)c2ccc(NC(=O)c3cccs3)cc2)cc1 | 9.72 |
| Cc1ccc(C2CC(C(F)F)n3ncc(C(=O)Nc4c(C)nn(Cc5c(F)cccc5Cl)c4C)c3N2)cc1 (stereo not drawn) | 14.5 |
| COc1cc(C(=O)NC2CC3CCCC(C2)N3Cc2ccccc2)cc(OC)c1OC (stereo not drawn) | 15 |
| O=C(O)CCC(=O)NNC(=O)COc1cccc(Cl)c1 | 5.01 |
| COC(=O)C1=C(C)NC(=S)NC1/C=C/c1ccccc1 (stereo not drawn) | 12.7 |
| COc1cc(CNc2ccc(CNc3ncn[nH]3)cc2)cc(Cl)c1OCc1ccccc1 | 11.1 |
| CNC(=O)c1ccsc1NC(=O)c1sc2ccccc2c1Cl | 20.2 |
| O=C(Nc1ccccc1C1CC1)c1cccs1 | 3.83 |
| c1ccc(Cn2ncc3c(N4CCN(C(c5ccccc5)c5ccccc5)CC4)ncnc32)cc1 | 24.6 |
| Cc1ccc(S(=O)(=O)N/N=C/c2ccc(C#N)cc2)cc1 | 10.8 |
| NC(=O)Cn1cc(/C=N\NS(=O)(=O)c2ccc(F)cc2)c2ccccc21 | 7.41 |
| Cc1c(/C=N/O)c2ccccn2c1C=O | 11.4 |
| Cc1[nH]ccc(=O)c1Oc1ncc(C(F)(F)F)cc1Cl | 8.88 |
| CC1CCCC(C)N1C(=O)CN1CCN(c2nc(-c3ccc(F)cc3)cs2)CC1 (stereo not drawn) | 1.2 |

| Compound | hERG current change (%, negative = inhibition) at 1uM [%] |
| --- | --- |
| O=C(Nc1cc2c(cc1C(=O)O)OCCCO2)c1ccc(C(F)(F)F)cc1 | 18.3 |
| COc1ccc(C(C)=O)cc1COc1ccccc1[N+](=O)[O-] | 19.4 |
| Cc1ccc(-n2c(SCc3nc4ccccc4[nH]3)nnc2-c2ccncc2)cc1 | -9.47 |
| O=S(=O)(NCc1ccco1)c1ccccc1Br | 8.66 |
| CC(=O)NS(=O)(=O)c1ccc2c(c1)Cc1cc(S(=O)(=O)NC(C)=O)ccc1-2 | 15.7 |
| Cl.OC1(c2cccnc2)CCN(Cc2nnnn2C2CCCCC2)CC1 | 13.5 |
| O=C(COc1ccc([N+](=O)[O-])cc1)NCC(c1cccs1)N1CCOCC1 (stereo not drawn) | -18.4 |
| Clc1cccc(C2=NOC(c3nnc(-c4ccccc4)o3)C2)c1 (stereo not drawn) | 15.9 |
| CN(C)CCNC(=O)c1ccc2c(c1)N(Cc1ccc(F)cc1)CCS2 | -5.22 |
| O=C(Nc1ncc(S(=O)(=O)c2ccc([N+](=O)[O-])cc2)s1)c1ccc2ccccc2c1 | 15.3 |
| O=C(Nc1ccc(F)cc1F)c1cc2ncc(CCCl)cn2n1 | 8.39 |
| CCc1ccc(OCC(=O)Nc2ncc3c(n2)CC(C)(C)CC3=O)cc1 | -9.42 |
| Cl.Nc1ccccc1Sc1nc2ccccc2[nH]1 | 8.57 |
| CCN1C(=O)c2cccc3c(N)ccc(c23)C1=O | 17.5 |
| Cc1cc(/C=C(\C#N)C(=O)NCc2cccs2)c(C)n1-c1ccc([N+](=O)[O-])cc1 | 10.8 |
| CCCc1nc(SCc2ccc(OCC)cc2)n[nH]1 | 12.6 |
| COc1ccc2[nH]c(CN3CCN(C(C)C)C(CCO)C3)c(C)c2c1 (stereo not drawn) | 6.12 |
| COc1ccc(C(=O)O)cc1S(=O)(=O)NCCc1ccccn1 | 9.8 |
| Cc1sc2ncnc(NCCCO)c2c1C | 6.84 |
| COc1cc(OC)cc(C(=O)NCC(=O)OCC(=O)N2CC(C)CC(C)C2)c1 (stereo not drawn) | 22.1 |
| O=C(NC1CCCCC1)c1ccc2c(=O)n(CC3CCCO3)c(=O)[nH]c2c1 (stereo not drawn) | 10.4 |
